# Laboratory results from the supplement of paper PMC8728848.
# Some of the results follow.
# Legend:
# Assay in all cases: glycan array binding signal (z-score within array); higher = stronger binding
# Details in all cases: glycan notation: IUPAC condensed, linker removed
# [1] = target: Neu5Ac(a2-3)Gal(b1-4)GlcNAc(b1-6)GalNAc
# Method in brief: (§1)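 Negative Z-scores can be read as non-binding. The Z-score is calculated within each array and then averaged across arrays of one protein sequence at different concentrations or buffers and across linkers. Arrays, 3228 in all, were curated from the Consortium for Functional Glycomics database and kept only where the protein sequence was available.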
# [2] = target: Neu5Ac(a2-3)Gal(b1-4)GlcNAc(b1-6)[Gal(b1-3)]GalNAc
# Method in brief: as §1
# [3] = target: Neu5Ac(a2-3)Gal(b1-4)GlcNAc(b1-6)[Neu5Ac(a2-3)Gal(b1-3)]GalNAc
# Method in brief: as §1
# [4] = target: Neu5Ac(a2-3)Gal(b1-4)GlcNAc6S
# Method in brief: as §1
# [5] = target: Neu5Ac(a2-3)Gal(b1-4)[Fuc(a1-3)]GlcNAc
# Method in brief: as §1
# [6] = target: Neu5Ac(a2-3)Gal(b1-4)[Fuc(a1-3)]GlcNAc(b1-2)Man
# Method in brief: as §1
# [7] = target: Neu5Ac(a2-3)Gal(b1-4)[Fuc(a1-3)]GlcNAc(b1-3)Gal
# Method in brief: as §1
# [8] = target: Neu5Ac(a2-3)Gal(b1-4)[Fuc(a1-3)]GlcNAc(b1-3)Gal(b1-4)GlcNAc
# Method in brief: as §1
# [9] = target: Neu5Ac(a2-3)Gal(b1-4)[Fuc(a1-3)]GlcNAc(b1-3)Gal(b1-4)[Fuc(a1-3)]GlcNAc(b1-3)Gal(b1-4)[Fuc(a1-3)]GlcNAc
# Method in brief: as §1
# [10] = target: Neu5Ac(a2-3)Gal(b1-4)[Fuc(a1-3)]GlcNAc(b1-3)GalNAc
# Method in brief: as §1
# [11] = target: Neu5Ac(a2-3)Gal(b1-4)[Fuc(a1-3)]GlcNAc(b1-6)[Gal(b1-3)]GalNAc
# Method in brief: as §1
# [12] = target: Neu5Ac(a2-3)Gal(b1-4)[Fuc(a1-3)]GlcNAc(b1-6)[Neu5Ac(a2-3)Gal(b1-3)]GalNAc
# Method in brief: as §1
# [13] = target: Neu5Ac(a2-3)Gal(b1-4)[Fuc(a1-3)]GlcNAc6S
# Method in brief: as §1
# [14] = target: Neu5Ac(a2-3)Gal6S(b1-4)GlcNAc
# Method in brief: as §1
# [15] = target: Neu5Ac(a2-3)Gal6S(b1-4)[Fuc(a1-3)]GlcNAc
# Method in brief: as §1
# [16] = target: Neu5Ac(a2-3)GalNAc
# Method in brief: as §1
# [17] = target: Neu5Ac(a2-3)GalNAc(b1-4)GlcNAc
# Method in brief: as §1
# [18] = target: Neu5Ac(a2-3)[GalNAc(b1-4)]Gal(b1-4)Glc
# Method in brief: as §1
# [19] = target: Neu5Ac(a2-3)[GalNAc(b1-4)]Gal(b1-4)GlcNAc
# Method in brief: as §1
# [20] = target: Neu5Ac(a2-3)[GalNAc(b1-4)]Gal(b1-4)GlcNAc(b1-3)GalNAc
# Method in brief: as §1
# [21] = target: Neu5Ac(a2-3)[Neu5Ac(a2-6)]GalNAc
# Method in brief: as §1
# [22] = target: Neu5Ac(a2-6)Gal
# Method in brief: as §1
# [23] = target: Neu5Ac(a2-6)Gal(b1-3)GlcNAc(b1-3)[Gal(b1-4)GlcNAc(b1-6)]Gal(b1-4)Glc
# Method in brief: as §1
# [24] = target: Neu5Ac(a2-6)Gal(b1-4)Glc
# Method in brief: as §1
# [25] = target: Neu5Ac(a2-6)Gal(b1-4)GlcNAc
# Method in brief: as §1
# [26] = target: Neu5Ac(a2-6)Gal(b1-4)GlcNAc(b1-2)Man
# Method in brief: as §1
# [27] = target: Neu5Ac(a2-6)Gal(b1-4)GlcNAc(b1-2)Man(a1-3)Man(b1-4)GlcNAc(b1-4)GlcNAc
# Method in brief: as §1
# [28] = target: Neu5Ac(a2-6)Gal(b1-4)GlcNAc(b1-2)Man(a1-3)[Gal(b1-4)GlcNAc(b1-2)Man(a1-6)]Man(b1-4)GlcNAc(b1-4)GlcNAc
# Method in brief: as §1
# [29] = target: Neu5Ac(a2-6)Gal(b1-4)GlcNAc(b1-2)Man(a1-3)[GlcNAc(b1-2)Man(a1-6)]Man(b1-4)GlcNAc(b1-4)GlcNAc
# Method in brief: as §1
# [30] = target: Neu5Ac(a2-6)Gal(b1-4)GlcNAc(b1-2)Man(a1-3)[GlcNAc(b1-4)][Neu5Ac(a2-6)Gal(b1-4)GlcNAc(b1-2)Man(a1-6)]Man(b1-4)GlcNAc(b1-4)GlcNAc
# Method in brief: as §1
# [31] = target: Neu5Ac(a2-6)Gal(b1-4)GlcNAc(b1-2)Man(a1-3)[Man(a1-6)]Man(b1-4)GlcNAc(b1-4)GlcNAc
# Method in brief: as §1
# [32] = target: Neu5Ac(a2-6)Gal(b1-4)GlcNAc(b1-2)Man(a1-3)[Neu5Ac(a2-3)Gal(b1-4)GlcNAc(b1-2)Man(a1-6)]Man(b1-4)GlcNAc(b1-4)GlcNAc
# Method in brief: as §1
# [33] = target: Neu5Ac(a2-6)Gal(b1-4)GlcNAc(b1-2)Man(a1-3)[Neu5Ac(a2-6)Gal(b1-4)GlcNAc(b1-2)Man(a1-6)]Man(b1-4)GlcNAc(b1-4)GlcNAc
# Method in brief: as §1
# [34] = target: Neu5Ac(a2-6)Gal(b1-4)GlcNAc(b1-2)Man(a1-3)[Neu5Ac(a2-6)Gal(b1-4)GlcNAc(b1-2)Man(a1-6)]Man(b1-4)GlcNAc(b1-4)[Fuc(a1-6)]GlcNAc
# Method in brief: as §1
# [35] = target: Neu5Ac(a2-6)Gal(b1-4)GlcNAc(b1-2)Man(a1-6)Man(b1-4)GlcNAc(b1-4)GlcNAc
# Method in brief: as §1
# [36] = target: Neu5Ac(a2-6)Gal(b1-4)GlcNAc(b1-2)Man(a1-6)[Gal(b1-4)GlcNAc(b1-2)Man(a1-3)]Man(b1-4)GlcNAc(b1-4)GlcNAc
# Method in brief: as §1
# [37] = target: Neu5Ac(a2-6)Gal(b1-4)GlcNAc(b1-2)Man(a1-6)[GlcNAc(b1-2)Man(a1-3)]Man(b1-4)GlcNAc(b1-4)GlcNAc
# Method in brief: as §1
# [38] = target: Neu5Ac(a2-6)Gal(b1-4)GlcNAc(b1-2)Man(a1-6)[Man(a1-3)]Man(b1-4)GlcNAc(b1-4)GlcNAc
# Method in brief: as §1
# [39] = target: Neu5Ac(a2-6)Gal(b1-4)GlcNAc(b1-2)[Neu5Ac(a2-6)Gal(b1-4)GlcNAc(b1-4)]Man(a1-3)[GlcNAc(b1-4)][Neu5Ac(a2-6)Gal(b1-4)GlcNAc(b1-2)[Neu5Ac(a2-6)Gal(b1-4)GlcNAc(b1-6)]Man(a1-6)]Man(b1-4)GlcNAc(b1-4)GlcNAc
# Method in brief: as §1
# [40] = target: Neu5Ac(a2-6)Gal(b1-4)GlcNAc(b1-2)[Neu5Ac(a2-6)Gal(b1-4)GlcNAc(b1-4)]Man(a1-3)[GlcNAc(b1-4)][Neu5Ac(a2-6)Gal(b1-4)GlcNAc(b1-4)Man(a1-6)]Man(b1-4)GlcNAc(b1-4)GlcNAc
# Method in brief: as §1
# [41] = target: Neu5Ac(a2-6)Gal(b1-4)GlcNAc(b1-2)[Neu5Ac(a2-6)Gal(b1-4)GlcNAc(b1-6)]Man(a1-6)[Neu5Ac(a2-6)Gal(b1-4)GlcNAc(b1-2)Man(a1-3)][GlcNAc(b1-4)]Man(b1-4)GlcNAc(b1-4)GlcNAc
# Method in brief: as §1
# [42] = target: Neu5Ac(a2-6)Gal(b1-4)GlcNAc(b1-3)Gal(b1-3)GlcNAc
# Method in brief: as §1
# [43] = target: Neu5Ac(a2-6)Gal(b1-4)GlcNAc(b1-3)Gal(b1-4)GlcNAc
# Method in brief: as §1
# [44] = target: Neu5Ac(a2-6)Gal(b1-4)GlcNAc(b1-3)Gal(b1-4)GlcNAc(b1-2)Man(a1-3)[Neu5Ac(a2-6)Gal(b1-4)GlcNAc(b1-3)Gal(b1-4)GlcNAc(b1-2)Man(a1-6)]GalNAc
# Method in brief: as §1
# [45] = target: Neu5Ac(a2-6)Gal(b1-4)GlcNAc(b1-3)Gal(b1-4)GlcNAc(b1-3)Gal(b1-4)GlcNAc
# Method in brief: as §1
binder,measurement,setting,value
PLU (Photorhabdus luminiscence) (protein) HHHHHHENLYFQSSIVFASIDPRSNPLQTSSQNYVDIPGLKLDVSKYSNSPCLTALITLNIPTPYASGNNFPGGNFAIVTDQGEQLAYGGFTYSSKIPENSGRMPFTLVARYSLASNVSTIKAQWSNIRGSTVHIDSYASISAVIQCNQLV,glycan array binding signal (z-score),[1],-0.289
same,glycan array binding signal (z-score),[2],-0.144
same,glycan array binding signal (z-score),[3],-0.34
same,glycan array binding signal (z-score),[4],-0.362
same,glycan array binding signal (z-score),[5],-0.304
same,glycan array binding signal (z-score),[6],-0.237
same,glycan array binding signal (z-score),[7],-0.325
same,glycan array binding signal (z-score),[8],-0.205
same,glycan array binding signal (z-score),[9],-0.382
same,glycan array binding signal (z-score),[10],-0.087
same,glycan array binding signal (z-score),[11],-0.092
same,glycan array binding signal (z-score),[12],-0.178
same,glycan array binding signal (z-score),[13],-0.225
same,glycan array binding signal (z-score),[14],-0.282
same,glycan array binding signal (z-score),[15],-0.369
same,glycan array binding signal (z-score),[16],-0.318
same,glycan array binding signal (z-score),[17],-0.294
same,glycan array binding signal (z-score),[18],-0.324
same,glycan array binding signal (z-score),[19],-0.263
same,glycan array binding signal (z-score),[20],-0.267
same,glycan array binding signal (z-score),[21],-0.281
same,glycan array binding signal (z-score),[22],-0.306
same,glycan array binding signal (z-score),[23],-0.377
same,glycan array binding signal (z-score),[24],-0.273
same,glycan array binding signal (z-score),[25],-0.248
same,glycan array binding signal (z-score),[26],-0.311
same,glycan array binding signal (z-score),[27],-0.243
same,glycan array binding signal (z-score),[28],-0.224
same,glycan array binding signal (z-score),[29],-0.283
same,glycan array binding signal (z-score),[30],-0.164
same,glycan array binding signal (z-score),[31],-0.232
same,glycan array binding signal (z-score),[32],-0.296
same,glycan array binding signal (z-score),[33],-0.244
same,glycan array binding signal (z-score),[34],0.022
same,glycan array binding signal (z-score),[35],-0.189
same,glycan array binding signal (z-score),[36],-0.27
same,glycan array binding signal (z-score),[37],-0.263
same,glycan array binding signal (z-score),[38],-0.231
same,glycan array binding signal (z-score),[39],-0.205
same,glycan array binding signal (z-score),[40],-0.267
same,glycan array binding signal (z-score),[41],-0.279
same,glycan array binding signal (z-score),[42],-0.333
same,glycan array binding signal (z-score),[43],-0.318
same,glycan array binding signal (z-score),[44],-0.239
same,glycan array binding signal (z-score),[45],-0.311
